The values that follow come from patent publication US11178870B2 (priority 2017, dated 2021).

The test system of one assay is Magnaporthe grisea. In kind it is in vivo. As to conditions: Blast on rice.
The next assay relates to Phytophthora infestans. Type of assay: in vivo. To be noted: Late blight on tomato.

For `CCn1c(-c2c(F)cc(F)cc2F)c(-n2cc(C)c(C)n2)ccc1=O` [Compound 109], in the assay with Magnaporthe grisea, the “Test A control value” is “H (H shows the control value more than 50%)”. Also, the “Test F control value” in the assay on Phytophthora infestans was “L (L shows the control value of 50% or less)”. With `Cn1c(-c2c(F)cccc2F)c(-c2cccs2)ccc1=O` [Compound 14], the “Test A control value” in the assay with Magnaporthe grisea was “L (L shows the control value of 50% or less)”. The “Test F control value” with Phytophthora infestans is listed as “L (L shows the control value of 50% or less)”. For `O=c1ccc(-c2cccnc2Cl)c(-c2c(F)cccc2F)n1CC(F)F` [Compound 56], the “Test A control value” in the assay on Magnaporthe grisea is “H (H shows the control value more than 50%)”. The “Test F control value” in the assay with Phytophthora infestans is “L (L shows the control value of 50% or less)”. As to `CCn1c(-c2c(F)cccc2F)c(-c2ccsc2Br)cc(Br)c1=O` [Compound 54], the “Test A control value” in the assay with Magnaporthe grisea is listed as “H (H shows the control value more than 50%)”. For the same molecule, the “Test F control value” in the assay with Phytophthora infestans is “L (L shows the control value of 50% or less)”. With `CCn1c(-c2ccccc2Cl)c(-n2cc(Cl)cn2)cc(Cl)c1=O` [Compound 172], the “Test A control value” in the assay on Magnaporthe grisea is “H (H shows the control value more than 50%)”. In addition, the “Test F control value” in the assay on Phytophthora infestans is “L (L shows the control value of 50% or less)”. Take `O=c1c(Cl)cc(-c2cccnc2Cl)c(-c2c(F)cccc2F)n1CC(F)(F)F` [Compound 60]: in the assay with Magnaporthe grisea, the “Test A control value” is “L (L shows the control value of 50% or less)”. In the assay on Phytophthora infestans, the “Test F control value” is on record as “L (L shows the control value of 50% or less)”. As to `CCn1c(-c2c(F)cc(OC)cc2F)c(-c2oc(Br)nc2Br)cc(Br)c1=O` [Compound 102], the “Test A control value” with Magnaporthe grisea is listed as “H (H shows the control value more than 50%)”. Besides, the “Test F control value” in the assay with Phytophthora infestans is recorded as “L (L shows the control value of 50% or less)”. As for `CCn1c(-c2c(F)cc(F)cc2F)c(-n2cnc(Cl)c2Cl)cc(Br)c1=O` [Compound 139], the “Test A control value” in the assay with Magnaporthe grisea is given as “H (H shows the control value more than 50%)”. Further, the “Test F control value” in the assay on Phytophthora infestans was “L (L shows the control value of 50% or less)”. The corresponding values for `CCn1c(-c2c(F)cccc2F)c(-n2cc(Cl)cn2)ccc1=O` [Compound 52] are “H (H shows the control value more than 50%)” and “L (L shows the control value of 50% or less)”.

Consider `CCn1c(-c2c(F)cc(OC)cc2F)c(-n2cc(Cl)cn2)cc(Br)c1=O` [Compound 73], for which the “Test A control value” with Magnaporthe grisea was “H (H shows the control value more than 50%)”. The “Test F control value” with Phytophthora infestans was “L (L shows the control value of 50% or less)”.

With `CCn1c(-c2c(F)cccc2F)c(-c2cnco2)cc(Cl)c1=O` [Compound 42], the “Test A control value” in the assay on Magnaporthe grisea is “L (L shows the control value of 50% or less)”. Moreover, the “Test F control value” in the assay on Phytophthora infestans was “L (L shows the control value of 50% or less)”. Take `CCn1c(-c2c(F)cc(F)cc2F)c(-n2ncnc2I)cc(Cl)c1=O` [Compound 48]: the “Test A control value” in the assay on Magnaporthe grisea is “H (H shows the control value more than 50%)”. In addition, the “Test F control value” in the assay with Phytophthora infestans is “L (L shows the control value of 50% or less)”. For the molecule `CCn1c(-c2c(F)cccc2F)c(-c2cnc(N(C)C)o2)cc(Cl)c1=O` [Compound 131], in the assay on Magnaporthe grisea, the “Test A control value” was “L (L shows the control value of 50% or less)”. In addition, the “Test F control value” in the assay with Phytophthora infestans is “L (L shows the control value of 50% or less)”. `CCn1c(-c2ccc(F)cc2F)c(-n2cc(Cl)cn2)ccc1=O` [Compound 145]: the “Test A control value” with Magnaporthe grisea was “H (H shows the control value more than 50%)”. The “Test F control value” with Phytophthora infestans is recorded as “L (L shows the control value of 50% or less)”. For the molecule `CCn1c(-c2c(F)cc(OC)cc2F)c(-c2cccnc2Cl)ccc1=O` [Compound 79], the “Test A control value” in the assay with Magnaporthe grisea is given as “H (H shows the control value more than 50%)”. Besides, the “Test F control value” in the assay on Phytophthora infestans is recorded as “L (L shows the control value of 50% or less)”. As to `Cn1c(-c2c(F)cccc2F)c(-c2cccnc2Cl)cc(Cl)c1=O` [Compound 105], the “Test A control value” with Magnaporthe grisea is recorded as “L (L shows the control value of 50% or less)”.
